In the supplement of paper PMC6089552:
The whole screen tested about 3,200 compounds, of which about 300 (9.4%) showed activity. Only a part is listed here, and it is no random draw.

System: A673/TR/shEF
Experiment: cell viability (LOESS-normalised, relative to median of negative controls) (log2 ratio); higher = more viable cells (less compound effect), active = hit call of the paper (over 3 MAD below the median)
Conditions: treatment time: 72 h
How it was run: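 A673/TR/shEF Ewing sarcoma cells (1,500 per well, 384-well plates) were grown with or without doxycycline to induce EWS-FLI1 shRNA knockdown, starting 24 h before compounds. Library compounds at two or more concentrations, with DMSO controls, were added for three days. Cell viability was read by CellTiter-Glo luminescence on an Envision reader, then LOESS-corrected per plate, divided by the median of negative controls and log2-transformed. Hits were wells at least three median absolute deviations from the median of all screened wells.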

[1] = 25 µM, library screen: screen3, EWS-FLI1 expression: high (no doxycycline)
[2] = 25 µM, library screen: screen3, EWS-FLI1 expression: low (doxycycline-induced shRNA knockdown)
[3] = 0.25 µM, library screen: screen2, EWS-FLI1 expression: high (no doxycycline)
[4] = 0.25 µM, library screen: screen2, EWS-FLI1 expression: low (doxycycline-induced shRNA knockdown)
[5] = 2.5 µM, library screen: screen2, EWS-FLI1 expression: high (no doxycycline)
[6] = 2.5 µM, library screen: screen2, EWS-FLI1 expression: low (doxycycline-induced shRNA knockdown)
[7] = 0.25 µM, library screen: screen1, EWS-FLI1 expression: high (no doxycycline)
[8] = 0.25 µM, library screen: screen1, EWS-FLI1 expression: low (doxycycline-induced shRNA knockdown)
[9] = 2.5 µM, library screen: screen1, EWS-FLI1 expression: high (no doxycycline)
[10] = 2.5 µM, library screen: screen1, EWS-FLI1 expression: low (doxycycline-induced shRNA knockdown)
[11] = 0.103 µM, library screen: screen3, EWS-FLI1 expression: high (no doxycycline)
[12] = 0.103 µM, library screen: screen3, EWS-FLI1 expression: low (doxycycline-induced shRNA knockdown)
[13] = 0.308 µM, library screen: screen3, EWS-FLI1 expression: high (no doxycycline)
[14] = 0.308 µM, library screen: screen3, EWS-FLI1 expression: low (doxycycline-induced shRNA knockdown)
[15] = 0.926 µM, library screen: screen3, EWS-FLI1 expression: high (no doxycycline)
[16] = 0.926 µM, library screen: screen3, EWS-FLI1 expression: low (doxycycline-induced shRNA knockdown)
[17] = 2.8 µM, library screen: screen3, EWS-FLI1 expression: high (no doxycycline)
[18] = 2.8 µM, library screen: screen3, EWS-FLI1 expression: low (doxycycline-induced shRNA knockdown)
[19] = 8.3 µM, library screen: screen3, EWS-FLI1 expression: high (no doxycycline)
[20] = 8.3 µM, library screen: screen3, EWS-FLI1 expression: low (doxycycline-induced shRNA knockdown)

Measured: cell viability (log2)

COc1cc(Nc2c(C#N)cnc3cc(OCCCN4CCN(C)CC4)c(OC)cc23)c(Cl)cc1Cl
active: [1] -1.59 | [2] -0.647

CC(=O)N[C@H](C(=O)O)C(C)(C)SN=O
inactive: [3] 0.143 | [4] -0.0423 | [5] 0.085 | [6] 0.0334

CCC1(c2ccccc2)C(=O)NCNC1=O
active: [5] -0.197 | [6] -0.337

O=C(O)CCCCCCCCCCCCC1C=CCC1 (configuration not stated)
inactive: [7] 0.109 | [8] -0.0641 | [9] 0.133 | [10] 0.00345

N#Cc1ccc2c(c1)N(CCCN1CCC(O)CC1)c1ccccc1S2
inactive: [7] 0.0311 | [8] 0.0801 | [9] 0.102 | [10] 0.0718

COc1ccc(NC(=O)/C(=C/c2cccs2)NC(=O)c2cccs2)cc1
inactive: [7] 0.0675 | [8] 0.0437 | [9] 0.0662 | [10] 0.0201

NC(=O)C1CCCc2c1[nH]c1ccc(Cl)cc21 (configuration not stated)
inactive: [11] 0.0735 | [12] 0.0747 | [13] 0.00301 | [14] 0.0206 | [15] 0.00589 | [16] 0.0858 | [17] 0.0139 | [18] 0.0236 | [19] 0.0192 | [20] 0.0625 | [1] 0.0618 | [2] 0.0202

COc1cccc2c1CCC1CC(=O)CC[C@]21C (some centres not stated)
inactive: [7] 0.0982 | [8] 0.0827 | [9] 0.058 | [10] 0.11

NC1CCN(O)C1=O (configuration not stated)
inactive: [3] 0.2 | [4] 0.142 | [5] 0.0598 | [6] 0.0845

COc1ccc(CNS(=O)(=O)c2ccc(NC(C)=O)cc2)cc1
inactive: [7] 0.136 | [8] 0.114 | [9] 0.073 | [10] 0.0317

C[C@]12CC[C@@H]3c4ccc(O)cc4C[C@@H](CCCCCCCCC[S+]([O-])CCCC(F)(F)C(F)(F)F)[C@H]3[C@@H]1CC[C@@H]2O (some centres not stated)
inactive: [11] 0.0763 | [12] 0.0366 | [13] 0.032 | [14] 0.0664 | [15] 0.206 | [16] 0.0078 | [17] 0.089 | [18] 0.022 | [19] 0.119 | [20] 0.0733 | [1] 0.114 | [2] 0.139

COC(=O)c1c(OC)cc2c(c1C)Oc1c(Cl)c(O)c(Cl)c(C)c1C(=O)O2
inactive: [7] 0.0752 | [8] -0.0599 | [9] 0.0671 | [10] 0.0715

COc1cc(CNC(=O)CCCC/C=C/C(C)C)ccc1O
inactive: [7] 0.143 | [8] 0.0268 | [9] -0.0157 | [10] -0.427

CO/N=C(\C(=O)N[C@@H]1C(=O)N2C(C(=O)O)=C(COC(C)=O)CS[C@H]12)c1csc(N)n1
inactive: [7] 0.0446 | [8] 0.0457 | [3] 0.2 | [4] 0.0913 | [9] 0.131 | [10] 0.159 | [5] -0.0248 | [6] 0.156

C=C1C2CCC3(C)C(c4ccoc4)OC(=O)CC13OC1CC(=O)C(C)(C)C(CC(=O)OC)C12C (configuration not stated)
inactive: [7] 0.0862 | [8] 0.067 | [9] 0.0511 | [10] 0.0888

O=C(O)c1c2ccccc2cc2ccccc12
inactive: [7] 0.0833 | [8] 0.174 | [9] 0.112 | [10] 0.125

C=CCCCCCCCCCCCC=CC(O)COC(C)=O (configuration not stated)
inactive: [7] -0.0116 | [8] 0.0382 | [9] 0.137 | [10] 0.0541

Cc1cc2cc3c(C)cc(=O)oc3c(C)c2o1
inactive: 0.025 µM, library screen: screen2, EWS-FLI1 expression: high (no doxycycline) 0.0654 | 0.025 µM, library screen: screen2, EWS-FLI1 expression: low (doxycycline-induced shRNA knockdown) 0.107 | [7] 0.0749 | [8] 0.172 | [3] 0.033 | [4] 0.071 | [9] 0.132 | [10] 0.159 | [5] 0.0444 | [6] 0.0462 | 25 µM, library screen: screen2, EWS-FLI1 expression: high (no doxycycline) 0.148 | 25 µM, library screen: screen2, EWS-FLI1 expression: low (doxycycline-induced shRNA knockdown) 0.08

CC(=O)Nc1nnc(S(N)(=O)=O)s1
inactive: [7] 0.0998 | [8] 0.0331 | [3] 0.152 | [4] 0.0614 | [9] 0.127 | [10] 0.164 | [5] 0.0792 | [6] 0.0644

O=C(O)CCC(C(=O)O)N1C(=O)c2ccccc2C1=O (configuration not stated)
inactive: [3] 0.0198 | [4] 0.0984 | [5] 0.111 | [6] -0.0225

OC[C@@H](O)[C@@H](O[C@@H]1O[C@H](CO)[C@@H](O)[C@H](O)[C@H]1O)[C@H](O)[C@@H](O)CO
inactive: [7] 0.117 | [8] 0.055 | [9] 0.143 | [10] 0.0198
